Data: the RNAGym collection of RNA variant scans (doi:10.1093/nar/gkz1192)
Read counts are not given, so values of variants with three or more changes are uncertain.

B1: CPEB3 Ribozyme (parent)
chain: UAACAGGGGGCCACAGCAGAAGCGUUCACGUCGCAGCCCCUGUCAGAUUCUGGUGAAUCUGCGAAUUCUGCUGUAUAUCUC

Variants of: B1
Assay: self-cleavage, relative activity (ratio to wild type); higher = more cleavage; in vitro, sequencing
Procedure, shortened: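 Relative activity compares each variant's cleaved/total read fraction with that of the unmutated ribozyme. To get these fractions, barcoded CPEB3 ribozyme libraries from rounds of error-prone PCR were transcribed with T7 RNA polymerase for 5 hours at 37°C and then given 15 min of DNase I treatment before EDTA was added. The RNAs were reverse transcribed with template switching and sequenced on Illumina, and DNA sequencing linked barcodes to variants. A minimum of 5 reads applied, and three batches were averaged.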

Variant	self-cleavage
UAACAGGGGGCCACAGCAGAAGCGUACACGUCGCAGCCCCUGUCGGAUUCUGGUAAAUCUGCGAAUUCUGCUGUAUAUCUC [U26A A45G G55A]	0.27
UAACAGGGGGCCACAGCAGAAGCGUACACGUCGCAGCCCUUGUCAGAUCCUGGUGACUCUGCGAAUUCUGCUGUAUAUCUC [U26A C40U U49C A57C]	0.16
UAACAGGGGGCCACAGCAGAAGCGGUCACAUCGCAGCCCCUGUCAGAUUCUGGUGAAUCUGCGGAUUCUGCUGUAUAUCUC [U25G G30A A64G]	0.13
UAACAGGGGGCCACAGCAGAAGCGGUCACGUCGCAGCCCCUGUCAGAUCCUGGUGAAUCUGCGUAUUCUGCUGUAUAUCUC [U25G U49C A64U]	0.07
UAACAGGGGGCCACAGCAGAAGCGUACACGUCACAGCCCCUGUCAGAUUCUGGUGAAUCUGCGAAUUCUGCUGUAUAUUUC [U26A G33A C79U]	0.07
UAACAGGGGGCCACAGCAGAAGCGUACACGUCGCAGCACCUGUCAGAUUCUGGUGAAUCAGCGAAUUCUGCUGUAUACCCC [U26A C38A U60A U78C U80C]	0.18
UAACAGGGGGCCACAGCAGAAGCGGUCACGUCGCAGCCCCUGUCAGAUUCCGGUGAAUCUGCGGAUUCUGCCGCAUAUCUC [U25G U51C A64G U72C U74C]	0.1
UAACAGGGGGCCACAGCAGAAGCGUACGCGUCGCAGCCCCUGUCAGAUUCCGGUGAAUCUGCGAAUUCUGCUGUAUAUCUC [U26A A28G U51C]	0.64
UAACAGGGGGCCACAGCAGAAGCGGUCACGUCGCAGCCCCUGUCAGAUUCUGGUGAAUCUGCGAAUCCUGCUGUAUAUCCC [U25G U67C U80C]	0.13
UAACAGGGGGCCACAGCAGAAGCGUACACGUCGCAGCCCCUGUCAGAUUCUGGUGAAUCUGCGAAUUGCGCUGUAUAUCUC [U26A C68G U69C]	0.11
UAACAGGGGGCCACAGCAGAAGCGUACACGUCGCAGCCCCUGUCAGAUUCUGGUGUAUCCGCGAACUCUGCCGUAUAUCUC [U26A A56U U60C U66C U72C]	0.28
UAACAGGGGGCCACAGCAGAAGCGGUCACGUCGCAGCCCCUGUCAGAUUCCGGUGAAUCUGCGAAUACUGCUGUAUAUCUC [U25G U51C U67A]	0.5
UAACAGGGGGCCACAGCAGAAGCGUACGCGUCGCAGCCCCCGUCAGAUUCUGGUGAAUCUGCGAAUUCUGCUGUAUAUCUC [U26A A28G U41C]	0.22
UAACAGGGGGCCACAGCAGAAGCGUACACGUCGCAGCCCCUGUCUGAUCCUGGUGAAUCUGCGAGUUCUGCUGUAUAUCUC [U26A A45U U49C A65G]	0.17
UAACAGGGGGCCACAGCAGAAGCGUACACGUCGCAGCCCUUGUCAGAUUCUGGUGAAUCUGCGAAUUCUGCUGUAUAUCUA [U26A C40U C81A]	0.8
UAACAGGGGGCCACAGCAGAAGCGUACACGUCGCGGCCCCUGUCAGAUUCUGGUGAAACAGCGAAUUCUGCUGUAUAUCUC [U26A A35G U58A U60A]	0.33
UAACAGGGGGCCACAGCAGAAGCGUACACGUCGGAGCCCCUGUCAGAUUCUGGUGAAUCUGCGAAUUCUGCAGUAUACCUC [U26A C34G U72A U78C]	0.05

Variant	self-cleavage
UAACAGGGGGCCACAGCAGAAGCGUACACGUCGCGGCCCCUGUCAGAUUCUGGUGAAUCUGCGAAUUCUUCUGUAAAUCUC [U26A A35G G70U U76A]	1.1
UAACAGGGGGCCACAGCAGAAGCGGUCACGCCGCAGCCCCUGUCAGAUUCCGGUGAAUCUGCGAAUUCUGCUGUAUAUCUC [U25G U31C U51C]	0.31
UAACAGGGGGCCACAGCAGAAGCGUACAAGUCGCUGCCCCUGUCAGAUUCUGGUGAAUCUGCGAAUUCUGCUGUAUAUCUC [U26A C29A A35U]	0.16
UAACAGGGGGCCACAGCAGAAGCGUACUCGUCGCUGCCCCUGUCAGAUUCUGGUGAAUCUGCGAAUUCUGCUGUAUAUCCC [U26A A28U A35U U80C]	0.25
UAACAGGGGGCCACAGCAGAAGCGUACACGUCGCAGCCCCUGUCAGAUUCUGGUGAAUCUGCGAUCUCUGCUGUAUAUCUC [U26A A65U U66C]	0.3
UAACAGGGGGCCACAGCAGAAGCGUACACGUCGCAGCCUCUGUCAGACUCUGGUGAAUCCGCGAAUCCUGCCGUACAUCUC [U26A C39U U48C U60C U67C U72C U76C]	0.06
UAACAGGGGGCCACAGCAGAAGCGUACGCGUCUCAGCCCCUGUCAGAUUCUGGUGAAUCUGCGAAUUCUGCUGUAUAUCUC [U26A A28G G33U]	0.15
UAACAGGGGGCCACAGCAGAAGCGUACACGUCGCAGCCUCUGUCAGAUUCUGGUGAAUCUACGAAUUCUGCUGUAUAUCUC [U26A C39U G61A]	0.36
UAACAGGGGGCCACAGCAGAAGCGUACACGUCGCAGCCCCUGUCAGAUUCUGGUGAUUCUGCGGAUUCUGCUGUAUAUCUC [U26A A57U A64G]	0.28
UAACAGGGGGCCACAGCAGAAGCGGUCACUUCGCAGCCCUUGUCGGAUUCUGGUGAAUCUGCGAAUUCUGCUGUAUAUCUC [U25G G30U C40U A45G]	0.12
UAACAGGGGGCCACAGCAGAAGCGUACACGUCGGAGCCCCUGUCAGAUUCUGGUGAAUCUGCGAUUCCUGCUAUAUAUCUC [U26A C34G A65U U67C G73A]	0.04
UAACAGGGGGCCACAGCAGAAGCGUACACGUCGCGGCCCCUGUCAGAUUCUGAUGAAUCUGCAAAUUCUGCUGUAUAUCUC [U26A A35G G53A G63A]	1.22
UAACAGGGGGCCACAGCAGAAGCGUACACGUCGCAGCCCCUGUCAGGUUCUGGUGAAUCUGCAAAUUCUGCUGUGUAUCUC [U26A A47G G63A A75G]	0.46
UAACAGGGGGCCACAGCAGAAGCGGUCACGUCGCAGCCCUUGUCAGAUUCUGGUGAAUCUGCGGAUUCAGCAGUAUAUCUC [U25G C40U A64G U69A U72A]	0
UAACAGGGGGCCACAGCAGAAGCGUACGCGUCGCGGCCCCUGUCAGAUUCUGGUGAAUCUGCGAAUUCUGCUGUAUAUCCC [U26A A28G A35G U80C]	0.97
UAACAGGGGGCCACAGCAGAAGCGGUCACGUCGCAGCCCCUGUCAGAUUCAGGUGAAUCUGCGAAUUCUGCUGUAUACCUC [U25G U51A U78C]	0.34
UAACAGGGGGCCACAGCAGAAGCGUACACGUCGCAGUCCCUGUCGGAUUCUGGUGAAUCUGCGAAUUCUGCUGUAUAUCUC [U26A C37U A45G]	0.6
